Our source for the inhibition values is PubChem BioAssay AID493035 (The Scripps Research Institute Molecular Screening Center, 2011).

Screen size: about 2,000 compounds; about 45 (2%) were called active.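 How the source made its calls: active means inhibition above the mean of all tested compounds plus 3 SD (cut at about 49% in these data); inactive means the rest.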 The list shows a part of the results.

The experiment concerns the target Perilipin-5 (Homo sapiens) + 1-acylglycerol-3-phosphate O-acyltransferase ABHD5 (Homo sapiens) (UniProt Q00G26+Q8WTS1). Put plainly: blockers of ABHD5 binding to perilipin-5 – cell lysate, split luciferase complementation, luminescence, NIH validation set, pilot screen (AID 493035).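 Further: 0% = DMSO only wells while the 100% control is not stated.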 Particulars: split G. princeps luciferase complementation, lysates, 4 h; at 7.9 µM, active compounds read high.
Chain of UniProt Q00G26 (Q00G26 whole entry, looked up): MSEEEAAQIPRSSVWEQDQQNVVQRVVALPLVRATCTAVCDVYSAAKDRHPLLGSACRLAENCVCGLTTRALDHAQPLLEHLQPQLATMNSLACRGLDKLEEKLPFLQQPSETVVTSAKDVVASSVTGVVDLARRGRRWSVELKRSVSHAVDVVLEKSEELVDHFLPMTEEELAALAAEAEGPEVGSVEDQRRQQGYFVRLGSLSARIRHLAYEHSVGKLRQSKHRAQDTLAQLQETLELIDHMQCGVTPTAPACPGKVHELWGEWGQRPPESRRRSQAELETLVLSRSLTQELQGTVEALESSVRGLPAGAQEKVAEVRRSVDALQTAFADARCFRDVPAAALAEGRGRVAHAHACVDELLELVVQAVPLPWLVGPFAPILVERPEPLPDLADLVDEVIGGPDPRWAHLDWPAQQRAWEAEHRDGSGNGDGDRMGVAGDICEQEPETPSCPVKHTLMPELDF
Chain of UniProt Q00G26 (Q8WTS1 whole entry, looked up): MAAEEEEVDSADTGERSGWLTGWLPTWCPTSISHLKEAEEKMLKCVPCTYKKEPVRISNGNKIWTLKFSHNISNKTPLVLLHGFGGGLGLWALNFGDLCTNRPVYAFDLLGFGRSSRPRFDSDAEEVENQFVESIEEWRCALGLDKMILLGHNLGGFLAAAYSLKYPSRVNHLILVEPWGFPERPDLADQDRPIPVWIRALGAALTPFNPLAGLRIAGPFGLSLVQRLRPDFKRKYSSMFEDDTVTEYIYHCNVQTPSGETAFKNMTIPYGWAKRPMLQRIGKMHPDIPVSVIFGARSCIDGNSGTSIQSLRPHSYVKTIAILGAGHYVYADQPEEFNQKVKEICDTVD
Regarding `COc1cccc(OC)c1C(=O)NCCSC1CCCCC1`, the inhibition (as a rule, the drop in the measured response relative to a control, in per cent) was inactive: -2.37%.

For `CNc1nc(Nc2ccccc2)nc(OCC(F)(F)F)n1`, the inhibition is inactive: -7%.

As for `COc1ccc(C(=O)/C=C2/c3ccccc3CC(C)(C)N2C)cc1`, the inhibition was inactive: 5.27%.

For the compound `O=C(CCC(=O)NCCO)NCCO`, the inhibition is inactive: 9.88%.

For the compound `Oc1c(Cl)cc(Cl)c(Cl)c1Cc1c(O)c(Cl)cc(Cl)c1Cl`, the inhibition was inactive: -0.34%.

Regarding `COc1cccc(-n2c(C)c3c(OC)cccc(=O)c3c2C)c1`, the inhibition is inactive: 10.7%.

For the compound `CCCCC[C@H](O)/C=C/C1=C(CCCCCCC(=O)O)C(=O)CC1`, the inhibition is inactive: 31.5%.

With `Cc1ccc(Nc2ncccc2C(=O)O)cc1C`, the inhibition was inactive: -2.37%.

As for `O=C(CCCCCCCC(=O)c1ccccc1)c1ccccc1`, the inhibition is inactive: -4.5%.

As to `Cc1cc(=O)[nH]c(=S)[nH]1`, the inhibition is inactive: 4.14%.

Take `C=C(C)Cn1c(NCCOC)nc2c1c(=O)[nH]c(=O)n2C`: the inhibition is inactive: -5.42%.

As for `CC(=O)c1ccc(CCCCCCCCCC(=O)O)s1`, the inhibition is inactive: -4.85%.

Regarding `COc1cc2c(cc1OC)/C(=C/c1ccc(Cl)cc1)C(=O)OC2`, the inhibition is inactive: 33.3%.

For the compound `C=CCOc1ccc(C(=O)CC)cc1OC`, the inhibition is inactive: -3.26%.

Consider `Cn1c(=O)[nH]c2nnc(-c3ccc(Cl)c(Cl)c3)nc2c1=O`, for which the inhibition was inactive: 1.39%.

For `CC(C(=O)O)c1ccc(-c2ccccc2)c(F)c1` (configuration not stated), the inhibition is inactive: 0.19%.

Take `Cn1c(=O)c2nc3ccccc3nc2n(C)c1=O`: the inhibition was inactive: -9.31%.

Turning to `COc1ccc(/C=N\NC(=O)CCc2c(C)n[nH]c2C)c(OC)c1OC`, the inhibition is inactive: -16.6%.

On to `O=P(O)(O)CP(=O)(O)O`, for which the inhibition was inactive: -0.22%.

As for `O=C(CCCC(=O)OCC1CCCO1)OCC1CCCO1` (configuration not stated), the inhibition is inactive: -12.9%.

As for `Cc1cc(=O)oc(C)c1C(=O)NCCC(C)C`, the inhibition is inactive: -4.73%.

As for `CC(=O)N1N=C(c2cccs2)CC1c1ccc(C)o1` (configuration not stated), the inhibition was inactive: -5.76%.

For the compound `O=C(Cc1c[nH]c2ccccc12)OCCOC(=O)Cc1c[nH]c2ccccc12`, the inhibition was inactive: 2.96%.

Regarding `COc1ccc2[nH]c3c(=O)n(/N=C/[C@H]4C(C)C=C(C)CC4C)c(=O)[nH]c3c2c1` (some centres not stated), the inhibition is inactive: 22.8%.

Turning to `COc1cc2c(cc1OC)C(c1cc(OC)c(OC)c(OC)c1)NCC2` (configuration not stated), the inhibition is inactive: -1.51%.

Turning to `CN(C)C(=O)C(CCN1CCC(O)(c2ccc(Cl)cc2)CC1)(c1ccccc1)c1ccccc1`, the inhibition is inactive: -12.5%.

`CSCCC(NC(=O)OC(C)(C)C)C(=O)Oc1ccc2c(=O)c(-c3ccc4c(c3)OCCO4)coc2c1` (configuration not stated): the inhibition was active: 69.1%.
